Our source for the binding signal (fold enrichment over input) values is article PMC12529666.

The target of experiment [1] is AGO2 WT (phosphosite mutant background) S387D + S824A + S828D + S831D + S834A (UniProt Q9UKV8). Briefly: RNA Bind-n-Seq (nitrocellulose filter binding and sequencing). The following applies: constant regions annealed to DNA blockers; guide miR-122 5' phosphate; 30 mM Tris pH 8.0, 100 mM potassium acetate, 2 mM magnesium acetate, 0.5 mM TCEP, 0.005% NP-40, 0.01 mg/ml yeast tRNA; 3 nM AGO2-miR-122, 100 nM RNA library …; high values mean tight binding.

Experiment [2] concerns the target AGO2 F182del S387D + S824A + S828D + S831D + S834A + del182-182 (UniProt Q9UKV8). Described as above. The settings on record: constant regions annealed to DNA blockers; guide miR-122 5' phosphate; 30 mM Tris pH 8.0, 100 mM potassium acetate, 2 mM magnesium acetate, 0.5 mM TCEP, 0.005% NP-40, 0.01 mg/ml yeast tRNA; 3 nM AGO2-miR-122, 100 nM RNA library …; high values mean tight binding.

The entries are a selection whose mix differs from that of the whole data set. At the low end of the ranking, values are background and their order means little. The list shows a part of the results.

For “GAGUUCUACAGUCCGACGAUCCCAACACGCUUCGCACCUGGAAUUCUCGGGUGCCAA / UGGAGUGUGACAAUGGUGUUUG / GATCGTCGGACTGTAGAACTC / TTGGCACCCGAGAATTCCA”, the binding signal (fold enrichment over input) was determined as 0.0824 in experiment [1] and 0.0559 in experiment [2].
The corresponding values for “GAGUUCUACAGUCCGACGAUCCCAACGUACUCUGCACCUGGAAUUCUCGGGUGCCAA / UGGAGUGUGACAAUGGUGUUUG / GATCGTCGGACTGTAGAACTC / TTGGCACCCGAGAATTCCA” are 0.0838 and 0.0619.
For “GAGUUCUACAGUCCGACGAUCCCAACACGUCUUGCACCUGGAAUUCUCGGGUGCCAA / UGGAGUGUGACAAUGGUGUUUG / GATCGTCGGACTGTAGAACTC / TTGGCACCCGAGAATTCCA” the same measures were 0.0864 and 0.0483.
As to “GAGUUCUACAGUCCGACGAUCCCAACGCACCUUGCACCUGGAAUUCUCGGGUGCCAA / UGGAGUGUGACAAUGGUGUUUG / GATCGTCGGACTGTAGAACTC / TTGGCACCCGAGAATTCCA”, the binding signal (fold enrichment over input) in experiment [1] is 0.0871; in experiment [2], 0.0817.
For “GAGUUCUACAGUCCGACGAUCCCAACAUGCCCUGCACCUGGAAUUCUCGGGUGCCAA / UGGAGUGUGACAAUGGUGUUUG / GATCGTCGGACTGTAGAACTC / TTGGCACCCGAGAATTCCA” the same measures were 0.0881 and 0.0408.
In the case of “GAGUUCUACAGUCCGACGAUCCCAACGCACUCCGCACCUGGAAUUCUCGGGUGCCAA / UGGAGUGUGACAAUGGUGUUUG / GATCGTCGGACTGTAGAACTC / TTGGCACCCGAGAATTCCA”, the binding signal (fold enrichment over input) in experiment [2] is 69.5.
Take “GAGUUCUACAGUCCGACGAUCCCAACGUAUCUUACACCUGGAAUUCUCGGGUGCCAA / UGGAGUGUGACAAUGGUGUUUG / GATCGTCGGACTGTAGAACTC / TTGGCACCCGAGAATTCCA”: the binding signal (fold enrichment over input) was found to be 0.103 in experiment [1] and 0.0771 in experiment [2].
For “GAGUUCUACAGUCCGACGAUCCCAACAUACUUCGCACCUGGAAUUCUCGGGUGCCAA / UGGAGUGUGACAAUGGUGUUUG / GATCGTCGGACTGTAGAACTC / TTGGCACCCGAGAATTCCA” the same measures were 0.0924 and 0.0566.
The corresponding values for “GAGUUCUACAGUCCGACGAUCCCAACGCGUUCUACACCUGGAAUUCUCGGGUGCCAA / UGGAGUGUGACAAUGGUGUUUG / GATCGTCGGACTGTAGAACTC / TTGGCACCCGAGAATTCCA” are 0.104 and 0.0738.
The corresponding values for “GAGUUCUACAGUCCGACGAUCCCAACGUACUCCGCACCUGGAAUUCUCGGGUGCCAA / UGGAGUGUGACAAUGGUGUUUG / GATCGTCGGACTGTAGAACTC / TTGGCACCCGAGAATTCCA” are 0.327 and 2.42.
Regarding “GAGUUCUACAGUCCGACGAUCCCAACACACUUCGCACCUGGAAUUCUCGGGUGCCAA / UGGAGUGUGACAAUGGUGUUUG / GATCGTCGGACTGTAGAACTC / TTGGCACCCGAGAATTCCA”, the binding signal (fold enrichment over input) in experiment [1] was 0.11; in experiment [2], 0.152.
For “GAGUUCUACAGUCCGACGAUCCCAACACAUUUCGCACCUGGAAUUCUCGGGUGCCAA / UGGAGUGUGACAAUGGUGUUUG / GATCGTCGGACTGTAGAACTC / TTGGCACCCGAGAATTCCA” the same measures were 0.0907 and 0.116.
For the sequence “GAGUUCUACAGUCCGACGAUCCCAACACACUCCACACCUGGAAUUCUCGGGUGCCAA / UGGAGUGUGACAAUGGUGUUUG / GATCGTCGGACTGTAGAACTC / TTGGCACCCGAGAATTCCA”, the binding signal (fold enrichment over input) in experiment [2] worked out at 116.
Regarding “GAGUUCUACAGUCCGACGAUCCCAACGCGCUCUGCACCUGGAAUUCUCGGGUGCCAA / UGGAGUGUGACAAUGGUGUUUG / GATCGTCGGACTGTAGAACTC / TTGGCACCCGAGAATTCCA”, the values for the binding signal (fold enrichment over input) in experiment [1] and in experiment [2] were 0.103 and 0.0652, respectively.
On to “GAGUUCUACAGUCCGACGAUCCCAACACGCCUUGCACCUGGAAUUCUCGGGUGCCAA / UGGAGUGUGACAAUGGUGUUUG / GATCGTCGGACTGTAGAACTC / TTGGCACCCGAGAATTCCA”, for which the binding signal (fold enrichment over input) in experiment [1] is 0.103; in experiment [2], 0.0832.
For “GAGUUCUACAGUCCGACGAUCCCAACGCGCCCUACACCUGGAAUUCUCGGGUGCCAA / UGGAGUGUGACAAUGGUGUUUG / GATCGTCGGACTGTAGAACTC / TTGGCACCCGAGAATTCCA” the same measures were 0.112 and 0.0598.
For “GAGUUCUACAGUCCGACGAUCCCAACACAUCUUACACCUGGAAUUCUCGGGUGCCAA / UGGAGUGUGACAAUGGUGUUUG / GATCGTCGGACTGTAGAACTC / TTGGCACCCGAGAATTCCA”, the binding signal (fold enrichment over input) in experiment [1] is 0.114; in experiment [2], 0.33.
The corresponding values for “GAGUUCUACAGUCCGACGAUCCCAACGCGUCUUGCACCUGGAAUUCUCGGGUGCCAA / UGGAGUGUGACAAUGGUGUUUG / GATCGTCGGACTGTAGAACTC / TTGGCACCCGAGAATTCCA” are 0.0948 and 0.0385.
For “GAGUUCUACAGUCCGACGAUCCCAACAUGUUCUACACCUGGAAUUCUCGGGUGCCAA / UGGAGUGUGACAAUGGUGUUUG / GATCGTCGGACTGTAGAACTC / TTGGCACCCGAGAATTCCA” the same measures were 0.108 and 0.182.
For “GAGUUCUACAGUCCGACGAUCCCAACAUACUCCGCACCUGGAAUUCUCGGGUGCCAA / UGGAGUGUGACAAUGGUGUUUG / GATCGTCGGACTGTAGAACTC / TTGGCACCCGAGAATTCCA” the same measures were 0.401 and 3.65.
